# The supplement of paper PMC8728848
# The list shows a part of the results.
# B1: LecB PA14 (Pseudomonas aeruginosa) (protein)
# chain: MATQGVFTLPANTQFGVTAFANSAGTQTVNVQVNNETVATFTGQSTNNAIIGSKVLNSGGGGKVQILVSVNGRSSDLVSAQVILANELNFALVGSEDSTDNDYNDAVVVINWPLG
# Assays:
# Assay in all cases: glycan array binding signal (z-score within array); higher = stronger binding
# Conditions in all cases: glycan notation: IUPAC condensed, linker removed
# [1] = biological target: GlcNAc(b1-2)Gal(b1-3)GalNAc
# How it was run: (§1)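 Negative Z-scores can be read as non-binding. The Z-score is calculated within each array and then averaged across arrays of one protein sequence at different concentrations or buffers and across linkers. Arrays, 3228 in all, were curated from the Consortium for Functional Glycomics database and kept only where the protein sequence was available.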
# [2] = biological target: GlcNAc(b1-2)Man(a1-3)[GlcNAc(b1-2)Man(a1-6)]Man(b1-4)GlcNAc(b1-4)GlcNAc
# How it was run: as §1
# [3] = biological target: GlcNAc(b1-2)Man(a1-3)[GlcNAc(b1-2)Man(a1-6)]Man(b1-4)GlcNAc(b1-4)[Fuc(a1-6)]GlcNAc
# How it was run: as §1
# [4] = biological target: GlcNAc(b1-2)Man(a1-3)[GlcNAc(b1-4)][GlcNAc(b1-2)Man(a1-6)]Man(b1-4)GlcNAc(b1-4)GlcNAc
# How it was run: as §1
# [5] = biological target: GlcNAc(b1-2)Man(a1-3)[GlcNAc(b1-4)][GlcNAc(b1-2)Man(a1-6)]Man(b1-4)GlcNAc(b1-4)[Fuc(a1-6)]GlcNAc
# How it was run: as §1
# [6] = biological target: GlcNAc(b1-2)[GlcNAc(b1-4)]Man(a1-3)[GlcNAc(b1-2)Man(a1-6)]Man(b1-4)GlcNAc(b1-4)GlcNAc
# How it was run: as §1
# [7] = biological target: GlcNAc(b1-2)[GlcNAc(b1-4)]Man(a1-3)[GlcNAc(b1-4)][GlcNAc(b1-2)Man(a1-6)]Man(b1-4)GlcNAc(b1-4)GlcNAc
# How it was run: as §1
# [8] = biological target: GlcNAc(b1-2)[GlcNAc(b1-4)]Man(a1-3)[GlcNAc(b1-4)][GlcNAc(b1-2)[GlcNAc(b1-6)]Man(a1-6)]Man(b1-4)GlcNAc(b1-4)GlcNAc
# How it was run: as §1
# [9] = biological target: GlcNAc(b1-2)[GlcNAc(b1-4)]Man(a1-3)[GlcNAc(b1-4)][GlcNAc(b1-2)[GlcNAc(b1-6)]Man(a1-6)]Man(b1-4)GlcNAc(b1-4)[Fuc(a1-6)]GlcNAc
# How it was run: as §1
# [10] = biological target: GlcNAc(b1-2)[GlcNAc(b1-6)]Man(a1-6)[GlcNAc(b1-2)Man(a1-3)]Man(b1-4)GlcNAc(b1-4)GlcNAc
# How it was run: as §1
# [11] = biological target: GlcNAc(b1-2)[GlcNAc(b1-6)]Man(a1-6)[GlcNAc(b1-2)Man(a1-3)]Man(b1-4)GlcNAc(b1-4)[Fuc(a1-6)]GlcNAc
# How it was run: as §1
# [12] = biological target: GlcNAc(b1-2)[GlcNAc(b1-6)]Man(a1-6)[GlcNAc(b1-4)][GlcNAc(b1-2)Man(a1-3)]Man(b1-4)GlcNAc(b1-4)GlcNAc
# How it was run: as §1
# [13] = biological target: GlcNAc(b1-3)Fuc
# How it was run: as §1
# [14] = biological target: GlcNAc(b1-3)Gal
# How it was run: as §1
# [15] = biological target: GlcNAc(b1-3)Gal(b1-3)GalNAc
# How it was run: as §1
# [16] = biological target: GlcNAc(b1-3)Gal(b1-4)Glc
# How it was run: as §1
# [17] = biological target: GlcNAc(b1-3)Gal(b1-4)GlcNAc
# How it was run: as §1
# [18] = biological target: GlcNAc(b1-3)Gal(b1-4)GlcNAc(b1-2)Man(a1-3)[GlcNAc(b1-3)Gal(b1-4)GlcNAc(b1-2)Man(a1-6)]Man(b1-4)GlcNAc(b1-4)GlcNAc
# How it was run: as §1
# [19] = biological target: GlcNAc(b1-3)Gal(b1-4)GlcNAc(b1-2)Man(a1-3)[GlcNAc(b1-3)Gal(b1-4)GlcNAc(b1-2)Man(a1-6)]Man(b1-4)GlcNAc(b1-4)[Fuc(a1-6)]GlcNAc
# How it was run: as §1
# [20] = biological target: GlcNAc(b1-3)Gal(b1-4)GlcNAc(b1-2)[GlcNAc(b1-3)Gal(b1-4)GlcNAc(b1-6)]Man(a1-6)[GlcNAc(b1-3)Gal(b1-4)GlcNAc(b1-2)Man(a1-3)]Man(b1-4)GlcNAc(b1-4)GlcNAc
# How it was run: as §1
# [21] = biological target: GlcNAc(b1-3)Gal(b1-4)GlcNAc(b1-3)Gal(b1-4)GlcNAc
# How it was run: as §1
# [22] = biological target: GlcNAc(b1-3)Gal(b1-4)GlcNAc(b1-3)Gal(b1-4)GlcNAc(b1-2)Man(a1-3)[GlcNAc(b1-3)Gal(b1-4)GlcNAc(b1-3)Gal(b1-4)GlcNAc(b1-2)Man(a1-6)]Man(b1-4)GlcNAc(b1-4)GlcNAc
# How it was run: as §1
# [23] = biological target: GlcNAc(b1-3)Gal(b1-4)GlcNAc(b1-3)Gal(b1-4)GlcNAc(b1-2)Man(a1-3)[GlcNAc(b1-3)Gal(b1-4)GlcNAc(b1-3)Gal(b1-4)GlcNAc(b1-2)Man(a1-6)]Man(b1-4)GlcNAc(b1-4)[Fuc(a1-6)]GlcNAc
# How it was run: as §1
# [24] = biological target: GlcNAc(b1-3)Gal(b1-4)GlcNAc(b1-3)Gal(b1-4)GlcNAc(b1-2)[GlcNAc(b1-3)Gal(b1-4)GlcNAc(b1-3)Gal(b1-4)GlcNAc(b1-6)]Man(a1-6)[GlcNAc(b1-3)Gal(b1-4)GlcNAc(b1-3)Gal(b1-4)GlcNAc(b1-2)Man(a1-3)]Man(b1-4)GlcNAc(b1-4)[Fuc(a1-6)]GlcNAc
# How it was run: as §1
# [25] = biological target: GlcNAc(b1-3)Gal(b1-4)GlcNAc(b1-3)Gal(b1-4)GlcNAc(b1-3)Gal(b1-4)GlcNAc(b1-2)Man(a1-3)[GlcNAc(b1-3)Gal(b1-4)GlcNAc(b1-3)Gal(b1-4)GlcNAc(b1-3)Gal(b1-4)GlcNAc(b1-2)Man(a1-6)]Man(b1-4)GlcNAc(b1-4)GlcNAc
# How it was run: as §1
# [26] = biological target: GlcNAc(b1-3)Gal(b1-4)GlcNAc(b1-3)Gal(b1-4)GlcNAc(b1-3)Gal(b1-4)GlcNAc(b1-2)Man(a1-3)[GlcNAc(b1-3)Gal(b1-4)GlcNAc(b1-3)Gal(b1-4)GlcNAc(b1-3)Gal(b1-4)GlcNAc(b1-2)Man(a1-6)]Man(b1-4)GlcNAc(b1-4)[Fuc(a1-6)]GlcNAc
# How it was run: as §1
# [27] = biological target: GlcNAc(b1-3)Gal(b1-4)GlcNAc(b1-3)Gal(b1-4)GlcNAc(b1-3)Gal(b1-4)GlcNAc(b1-2)[GlcNAc(b1-3)Gal(b1-4)GlcNAc(b1-3)Gal(b1-4)GlcNAc(b1-3)Gal(b1-4)GlcNAc(b1-6)]Man(a1-6)[GlcNAc(b1-3)Gal(b1-4)GlcNAc(b1-3)Gal(b1-4)GlcNAc(b1-3)Gal(b1-4)GlcNAc(b1-2)Man(a1-3)]Man(b1-4)GlcNAc(b1-4)[Fuc(a1-6)]GlcNAc
# How it was run: as §1
# [28] = biological target: GlcNAc(b1-3)Gal(b1-4)GlcNAc(b1-3)Gal(b1-4)GlcNAc(b1-3)Gal(b1-4)GlcNAc(b1-3)Gal(b1-4)GlcNAc(b1-2)Man(a1-3)[GlcNAc(b1-3)Gal(b1-4)GlcNAc(b1-3)Gal(b1-4)GlcNAc(b1-3)Gal(b1-4)GlcNAc(b1-3)Gal(b1-4)GlcNAc(b1-2)Man(a1-6)]Man(b1-4)GlcNAc(b1-4)GlcNAc
# How it was run: as §1
# [29] = biological target: GlcNAc(b1-3)Gal(b1-4)GlcNAc(b1-3)Gal(b1-4)GlcNAc(b1-3)Gal(b1-4)GlcNAc(b1-3)Gal(b1-4)GlcNAc(b1-2)Man(a1-3)[GlcNAc(b1-3)Gal(b1-4)GlcNAc(b1-3)Gal(b1-4)GlcNAc(b1-3)Gal(b1-4)GlcNAc(b1-3)Gal(b1-4)GlcNAc(b1-2)Man(a1-6)]Man(b1-4)GlcNAc(b1-4)[Fuc(a1-6)]GlcNAc
# How it was run: as §1
# [30] = biological target: GlcNAc(b1-3)Gal(b1-4)GlcNAc(b1-3)Gal(b1-4)GlcNAc(b1-3)Gal(b1-4)GlcNAc(b1-3)Gal(b1-4)GlcNAc(b1-2)[GlcNAc(b1-3)Gal(b1-4)GlcNAc(b1-3)Gal(b1-4)GlcNAc(b1-3)Gal(b1-4)GlcNAc(b1-3)Gal(b1-4)GlcNAc(b1-6)]Man(a1-6)[GlcNAc(b1-3)Gal(b1-4)GlcNAc(b1-3)Gal(b1-4)GlcNAc(b1-3)Gal(b1-4)GlcNAc(b1-3)Gal(b1-4)GlcNAc(b1-2)Man(a1-3)]Man(b1-4)GlcNAc(b1-4)[Fuc(a1-6)]GlcNAc
# How it was run: as §1
# [31] = biological target: GlcNAc(b1-3)Gal(b1-4)GlcNAc(b1-3)Gal(b1-4)GlcNAc(b1-3)GalNAc
# How it was run: as §1
# [32] = biological target: GlcNAc(b1-3)Gal(b1-4)GlcNAc(b1-3)GalNAc
# How it was run: as §1
# [33] = biological target: GlcNAc(b1-3)Gal(b1-4)GlcNAc(b1-3)[GlcNAc(b1-3)Gal(b1-4)GlcNAc(b1-3)]GalNAc
# How it was run: as §1
# [34] = biological target: GlcNAc(b1-3)Gal(b1-4)GlcNAc(b1-6)[Gal(b1-3)]GalNAc
# How it was run: as §1
# [35] = biological target: GlcNAc(b1-3)Gal(b1-4)GlcNAc(b1-6)[GlcNAc(b1-3)Gal(b1-3)]GalNAc
# How it was run: as §1
# [36] = biological target: GlcNAc(b1-3)Gal(b1-4)GlcNAc(b1-6)[GlcNAc(b1-3)]Gal(b1-4)GlcNAc
# How it was run: as §1
# [37] = biological target: GlcNAc(b1-3)GalNAc
# How it was run: as §1
# [38] = biological target: GlcNAc(b1-3)Man
# How it was run: as §1
# [39] = biological target: GlcNAc(b1-3)[GlcNAc(b1-4)][GlcNAc(b1-6)]GlcNAc
# How it was run: as §1
# [40] = biological target: GlcNAc(b1-3)[GlcNAc(b1-6)]Gal(b1-4)GlcNAc
# How it was run: as §1
# [41] = biological target: GlcNAc(b1-3)[GlcNAc(b1-6)]GalNAc
# How it was run: as §1
# [42] = biological target: GlcNAc(b1-4)Gal(b1-4)GlcNAc
# How it was run: as §1
# [43] = biological target: GlcNAc(b1-4)GlcNAc
# How it was run: as §1
# [44] = biological target: GlcNAc(b1-4)GlcNAc(b1-4)GlcNAc
# How it was run: as §1
# [45] = biological target: GlcNAc(b1-4)GlcNAc(b1-4)GlcNAc(b1-4)GlcNAc(b1-4)GlcNAc
# How it was run: as §1
binder,measurement,setting,value
B1,glycan array binding signal (z-score),[1],-0.299
same,glycan array binding signal (z-score),[2],-0.277
same,glycan array binding signal (z-score),[3],-0.186
same,glycan array binding signal (z-score),[4],-0.629
same,glycan array binding signal (z-score),[5],-0.624
same,glycan array binding signal (z-score),[6],-0.118
same,glycan array binding signal (z-score),[7],-0.008
same,glycan array binding signal (z-score),[8],0.175
same,glycan array binding signal (z-score),[9],0.121
same,glycan array binding signal (z-score),[10],-0.539
same,glycan array binding signal (z-score),[11],-0.125
same,glycan array binding signal (z-score),[12],-0.944
same,glycan array binding signal (z-score),[13],0.345
same,glycan array binding signal (z-score),[14],-0.454
same,glycan array binding signal (z-score),[15],-0.584
same,glycan array binding signal (z-score),[16],0.122
same,glycan array binding signal (z-score),[17],-0.289
same,glycan array binding signal (z-score),[18],-0.297
same,glycan array binding signal (z-score),[19],0.466
same,glycan array binding signal (z-score),[20],-0.571
same,glycan array binding signal (z-score),[21],-0.457
same,glycan array binding signal (z-score),[22],0.43
same,glycan array binding signal (z-score),[23],0.888
same,glycan array binding signal (z-score),[24],0.109
same,glycan array binding signal (z-score),[25],-0.576
same,glycan array binding signal (z-score),[26],2.1
same,glycan array binding signal (z-score),[27],-0.662
same,glycan array binding signal (z-score),[28],-0.305
same,glycan array binding signal (z-score),[29],-0.013
same,glycan array binding signal (z-score),[30],0.126
same,glycan array binding signal (z-score),[31],-0.583
same,glycan array binding signal (z-score),[32],-0.709
same,glycan array binding signal (z-score),[33],-0.239
same,glycan array binding signal (z-score),[34],0.055
same,glycan array binding signal (z-score),[35],0.079
same,glycan array binding signal (z-score),[36],-0.229
same,glycan array binding signal (z-score),[37],-0.194
same,glycan array binding signal (z-score),[38],-0.123
same,glycan array binding signal (z-score),[39],-0.668
same,glycan array binding signal (z-score),[40],-0.714
same,glycan array binding signal (z-score),[41],-0.503
same,glycan array binding signal (z-score),[42],-0.457
same,glycan array binding signal (z-score),[43],-0.362
same,glycan array binding signal (z-score),[44],-0.09
same,glycan array binding signal (z-score),[45],-0.406
